Data: PubChem BioAssay AID1347120 (National Center for Advancing Translational Sciences (NCATS), 2019)
Out of some 390,000 compounds screened, about 930 (0.24%) were called active. The shares of active, inactive and inconclusive entries below differ from those in the screen. Calls follow the shape of the dose curve; as a rule, active = well fitted activation curve with a large enough effect; inconclusive = small, poorly fitted or top-dose-only effect; inactive = no such curve, though single readings can be large or run the other way. Potencies of inconclusive entries are doubtful fits and often do not repeat.

assay: qHTS for Suppressors of FUS Proteinopathy: Primary screen using FUS-linked yeast assay; also: nearly all actives have a fitted effect of over 55% in size;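 as to growth rescue (activation): plate controls were DMSO vehicle for no effect and reference control for full effect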; conditions: S. cerevisiae FUS-expressing, OD600, 24 h; Potency: growth rescue; growth rescue (activation): at 76.6 µM (top of the series)
Method in brief: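 Yeast FUS proteinopathy model; galactose-induced FUS (2%), starting OD 0.005. Cpds in dilution series, 24hr, 30C, 99% humidity. Abs 600 nm growth. Pos ctrl CP55940 (top 92uM final); neg ctrl DMSO.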
Potency is read from the fitted curve at half-maximal effect; tags tell the direction and shape of the fitted curve.

Structure (SMILES) | Potency | growth rescue (activation)
Cc1cccc(N2CC(C(=O)Nc3cccc(S(=O)(=O)N4CCCCC4)c3)CC2=O)c1C (centres undefined) | inconclusive: 25.1 µM [activator, single point] | 
CC(C)N1CCc2c(sc(NC(=O)c3ccc(S(=O)(=O)N4CCc5ccccc54)cc3)c2C(N)=O)C1 | inconclusive: 44.7 µM [activator, single point] | 
COc1cc(C(=O)N2CCc3c([nH]c4ccccc34)C2c2ccc(C)cc2)cc(OC)c1OC (centres undefined) | active: 14.1 µM | 
COC(=O)CCCC1=CC2=C(c3ccccc3)C(=O)C(C)(OC(=O)C3CCCC3)C(=O)C2=CN1Cc1ccc(OC)cc1 (centres undefined) | inconclusive: 35.5 µM [activator, single point] | 
O=C(O)c1cc(C(=O)O)cc(N2C(=O)CSC2=S)c1 |  | inactive: -16.1%
CCOc1ccc(CCNC(=O)CCc2c(C)nc3cc(-c4ccccc4OC)nn3c2C)cc1 | inconclusive: 14.1 µM [activator, partial curve, poor fit] | 
CCCCC[C@@H](C)N1C[C@@H](COCc2ccccc2)Oc2cc(N3CCC[C@H]3C(N)=O)ccc2S1(=O)=O | inconclusive: 35.5 µM [activator, single point] | 
CCOc1ccc(NC(=O)/C=C\C(=O)N(c2ccc(C(C)C)cc2)C(C(=O)NCc2ccco2)c2ccc(F)cc2)cc1 (centres undefined) | inconclusive: 8.91 µM [activator, full curve] | 
COc1ccc(NC(=O)Cn2cnc3ccc(S(=O)(=O)N4CCC(C)CC4)cc3c2=O)cc1OC | inconclusive: 35.5 µM [activator, single point] | 
O=C(c1ccc(CS(=O)Cc2ccc(Cl)cc2)o1)N1CCN(C2CCCCC2)CC1 (centres undefined) |  | inactive: -19.9%
Cn1c(/C=C/c2ccc([N+](=O)[O-])o2)nc2ccccc2c1=O |  | inactive: 6.49%
O=c1c2ccccc2c(/C=N/n2cnnc2)c(O)n1-c1ccccc1 | inconclusive: 28.2 µM [activator, single point] | 
C/C(=N\NC(=O)OC(C)(C)C)c1ccccc1Br | inconclusive: 39.8 µM [activator, single point] | 
COc1ccc(-c2oc(=O)c3cc(OC)c(OC)cc3c2-c2ccc3c(c2)OCO3)cc1 | inconclusive: 22.4 µM [activator, partial curve] | 
CN(Cc1ccccc1)C(=O)c1cccc(NC(=O)Cc2ccc(NC(=O)C3CCN(C(=O)C4CCC4)CC3)cc2)c1 | inconclusive: 20 µM [activator, single point] | 
CCCS(=O)(=O)c1c(S(=O)(=O)CCC)c2c3ccccc3ccn2c1C(=O)OC | inconclusive: 50.1 µM [activator, single point] | 
O=C(C1=NN[C@@H]2C(=O)N(c3cccc(C(F)(F)F)c3)C(=O)[C@H]12)C(c1ccccc1)c1ccccc1 | inconclusive: 28.2 µM [activator, single point] | 
CCOc1cc(N2CCOCC2)c(OCC)cc1NC(=O)c1ccc(OCc2c(C)noc2C)c(OC)c1 |  | inactive: 16.3%
CS(=O)(=O)N1CCc2cc(C(=O)N3CCN(c4ccccc4)CC3)ccc21 | inconclusive: 31.6 µM [activator, partial curve, poor fit] | 
CN(CC(=O)Nc1ccc(Cl)c(C(F)(F)F)c1)C(=O)C1CCN(C(=O)c2ccc(Cl)cc2)CC1 | inconclusive: 28.2 µM [activator, single point] | 

Structure (SMILES) | Potency | growth rescue (activation)
Cn1c(=O)c2cc(S(=O)(=O)N3CCN(Cc4ccccc4)CC3)ccc2n(C)c1=O |  | inactive: -2.65%
Cc1ccc(-c2cc(N)n[nH]2)cc1 | active: 28.2 µM | 
COC(=O)[C@]12C[C@H](CC(=O)N3CCCC3)C(=O)N(Cc3cccc4ccccc34)C1=C[C@H](C1CCCC1)O[C@@H]2C | inconclusive: 28.2 µM [activator, single point] | 
CCCCOC(=O)CCN1C(=O)/C(=C/c2ccccc2)SC1=S |  | inactive: 6.12%
COc1ccccc1CNC(=O)CCC1N=C2c3ccccc3N=C(SCc3ccc(C)cc3)N2C1=O (centres undefined) | inconclusive: 35.5 µM [activator, single point] | 
Cc1ccc2c(c1)c(N1CCCC1=O)c(C(=O)Nc1ccc(F)cc1F)n2C |  | inactive: -22.8%
O=C(c1cc(NC(=O)C23CC4CC(CC(C4)C2)C3)cc(NC(=O)C23CC4CC(CC(C4)C2)C3)c1)N1CCCCC1 | inconclusive: 17.8 µM [activator, partial curve, poor fit] | 
CCOC(=O)c1cc(S(=O)(=O)N2CCN(c3ccc(C)cc3C)CC2)[nH]n1 | inconclusive: 31.6 µM [activator, single point] | 
COc1cc(-c2nnc(SCC3(c4ccc(Br)cc4)OCCO3)o2)cc(OC)c1OC | inconclusive: 17.8 µM [activator, partial curve, poor fit] | 
O=C(CCc1ccccc1)N[C@H]1[C@H](OC(=O)c2ccco2)CCC[C@@]12C(=O)N(Cc1ccccc1)c1ccccc12 | inconclusive: 3.98 µM [activator, partial curve] | 
COc1ccc(C(=O)N2CC3(CC(c4cccc(NC(=O)CC(c5ccccc5)c5ccccc5)c4)=NO3)C[C@H]2C(N)=O)cc1 (some centres undefined) | inconclusive: 31.6 µM [activator, single point] | 
CCCCN(CC)CCCNC(=O)Nc1sc2nc3n(c(=O)c2c1C)CCC(C)CC3 (centres undefined) |  | inactive: 19.4%
CC#CC[N+](C)(C)CCCCCCCCCCCC | inconclusive: 11.2 µM [activator, partial curve] | 
O=C(N[C@H]1CC1c1ccccc1)c1ccc([N+](=O)[O-])cc1 (some centres undefined) |  | inactive: 9.54%
Cc1ccc2[nH]c3c(N4CCN(Cc5ccccc5)CC4)ncnc3c2c1 |  | inactive: 15.5%
COc1ccc(Cl)c2sc(N(Cc3cccnc3)C(C)=O)nc12 | inconclusive: 10 µM [activator, single point] | 
CCOC(=O)CSc1nc2c(sc(=S)n2-c2ccccc2)c(=O)n1-c1ccc(OC)cc1OC | inconclusive: 39.8 µM [activator, single point] | 
CCC(C)Sc1cccc(-c2nc3cnccn3c2NC2CCCCC2)c1 (centres undefined) | inconclusive: 28.2 µM [activator, single point] | 
Cc1cc(Br)c2nc(-c3ccccc3)c(Cc3cccc(Cl)c3)n2c1 | inconclusive: 15.8 µM [activator, partial curve] | 
